Data: the supplement of paper PMC5499739
Whole data set: some 16,000 sequences, median “Z-score” near -0.37, cut for the highest 2% near 3.1. This is one part of the list.

The sequences below were run on RBM10 RRM1-ZnF-RRM2 (GST-tagged construct) (assay: RNAcompete 7-mer binding Z-score; higher = stronger binding preference).
Procedure, shortened: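 GST-tagged RBM10 constructs (20 pmol) and a designed pool of 241 399 RNAs up to 41 nt (1.5 nmol) were allowed to bind for 30 min at 4°C in 1 ml Hepes pH 7.8 buffer with glutathione Sepharose beads. After four 2-min washes at 4°C, bound RNA was identified by microarray hybridisation. Enrichment was scored per heptamer motif as a one-sided Z-score across the probes containing it.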

With GGUCUAC as the sequence, how does the “RNAcompete 7-mer binding Z-score” value read?
Its value is -0.00148.

CGCCUGA was tested. Which “RNAcompete 7-mer binding Z-score” value did it give?
Its value is -0.795.

How did the “RNAcompete 7-mer binding Z-score” value turn out when AUGUUAG was run?
Its value is 0.192.

For CAUGGGA, which “RNAcompete 7-mer binding Z-score” value is on record?
Its value is 2.16.

Which “RNAcompete 7-mer binding Z-score” value does the source give for CGGUAAG here?
The value was 1.52.

How did the “RNAcompete 7-mer binding Z-score” value turn out when GUUGGCG was run?
Its value is 1.37.

ACUCUCU was tested. Which “RNAcompete 7-mer binding Z-score” value did it give?
The value was -0.803.

Which “RNAcompete 7-mer binding Z-score” value does the source give for GUAAGUA here?
The value was 0.497.

Which “RNAcompete 7-mer binding Z-score” value does the source give for GUCUCCC here?
Its value is -0.442.

CGCCUUA was tested. Which “RNAcompete 7-mer binding Z-score” value did it give?
Its value is -0.97.

CUGAGCA was tested. Which “RNAcompete 7-mer binding Z-score” value did it give?
Its value is -0.337.

How did the “RNAcompete 7-mer binding Z-score” value turn out when GUCGACA was run?
Its value is -0.0998.

UCCCAUA was tested. Which “RNAcompete 7-mer binding Z-score” value did it give?
Its value is -0.77.

Which “RNAcompete 7-mer binding Z-score” value does the source give for AAUUGUG here?
The value was -0.00512.

How did the “RNAcompete 7-mer binding Z-score” value turn out when AGCCAGA was run?
The value was -0.216.

Which “RNAcompete 7-mer binding Z-score” value does the source give for CUAAUAG here?
Its value is -0.329.

AGUAUGA was tested. Which “RNAcompete 7-mer binding Z-score” value did it give?
Its value is -0.0598.

UUGUCAC was tested. Which “RNAcompete 7-mer binding Z-score” value did it give?
The value was -0.697.

AUUGCCC was tested. Which “RNAcompete 7-mer binding Z-score” value did it give?
The value was -0.945.

UAAUGCC was tested. Which “RNAcompete 7-mer binding Z-score” value did it give?
Its value is -0.723.

AUUUCUG was tested. Which “RNAcompete 7-mer binding Z-score” value did it give?
The value was -0.65.

Which “RNAcompete 7-mer binding Z-score” value does the source give for CCGUGUA here?
The value was -0.0816.

Which “RNAcompete 7-mer binding Z-score” value does the source give for UAAAGAA here?
Its value is -0.111.

How did the “RNAcompete 7-mer binding Z-score” value turn out when UCCCAAA was run?
The value was -0.781.

For CAUCUUC, which “RNAcompete 7-mer binding Z-score” value is on record?
The value was -1.04.

How did the “RNAcompete 7-mer binding Z-score” value turn out when AAUCUGG was run?
The value was -0.129.

With CACUGAC as the sequence, how does the “RNAcompete 7-mer binding Z-score” value read?
Its value is -0.548.

How did the “RNAcompete 7-mer binding Z-score” value turn out when CCCGGUU was run?
The value was -0.42.

Which “RNAcompete 7-mer binding Z-score” value does the source give for ACCUCGA here?
The value was -0.668.

Which “RNAcompete 7-mer binding Z-score” value does the source give for GCUGAAC here?
Its value is -0.417.

GUCUGGU was tested. Which “RNAcompete 7-mer binding Z-score” value did it give?
Its value is -0.0525.

Which “RNAcompete 7-mer binding Z-score” value does the source give for CGUGGUG here?
Its value is 1.44.

With GUUGUGU as the sequence, how does the “RNAcompete 7-mer binding Z-score” value read?
The value was -0.0415.

Which “RNAcompete 7-mer binding Z-score” value does the source give for GAGCACC here?
Its value is -0.322.

Which “RNAcompete 7-mer binding Z-score” value does the source give for UCAGAAU here?
The value was -0.388.

AGACCGG was tested. Which “RNAcompete 7-mer binding Z-score” value did it give?
Its value is -0.366.

How did the “RNAcompete 7-mer binding Z-score” value turn out when CUGUAGC was run?
The value was -0.621.

AGACUAU was tested. Which “RNAcompete 7-mer binding Z-score” value did it give?
The value was -0.704.

For ACUGCCG, which “RNAcompete 7-mer binding Z-score” value is on record?
Its value is -0.766.

Which “RNAcompete 7-mer binding Z-score” value does the source give for GACCUCG here?
The value was -0.737.

Which “RNAcompete 7-mer binding Z-score” value does the source give for UCCCCCC here?
The value was -0.296.

GAGCUCG was tested. Which “RNAcompete 7-mer binding Z-score” value did it give?
Its value is -0.289.

With GUAAAUC as the sequence, how does the “RNAcompete 7-mer binding Z-score” value read?
Its value is -0.282.

How did the “RNAcompete 7-mer binding Z-score” value turn out when UAUACGA was run?
The value was -0.227.

AUGCUAU was tested. Which “RNAcompete 7-mer binding Z-score” value did it give?
The value was -0.65.

Which “RNAcompete 7-mer binding Z-score” value does the source give for UGUGCGC here?
The value was -0.369.

GAGCUCC was tested. Which “RNAcompete 7-mer binding Z-score” value did it give?
The value was -0.657.

How did the “RNAcompete 7-mer binding Z-score” value turn out when ACGUGUU was run?
The value was -0.49.

With CAAUGCU as the sequence, how does the “RNAcompete 7-mer binding Z-score” value read?
Its value is -0.442.

For AAAUCAG, which “RNAcompete 7-mer binding Z-score” value is on record?
Its value is 0.0641.

For GAUAGGU, which “RNAcompete 7-mer binding Z-score” value is on record?
The value was 2.87.

How did the “RNAcompete 7-mer binding Z-score” value turn out when GAUACCC was run?
Its value is -0.511.

For UGAAAGC, which “RNAcompete 7-mer binding Z-score” value is on record?
Its value is -0.122.

With AUCCGCG as the sequence, how does the “RNAcompete 7-mer binding Z-score” value read?
The value was -0.613.

Which “RNAcompete 7-mer binding Z-score” value does the source give for GAUACCA here?
The value was -0.231.

How did the “RNAcompete 7-mer binding Z-score” value turn out when AAAUAGG was run?
The value was 1.24.

With CAUAGGC as the sequence, how does the “RNAcompete 7-mer binding Z-score” value read?
The value was 0.0641.

Which “RNAcompete 7-mer binding Z-score” value does the source give for UUGGUAU here?
The value was 0.323.

For GGUAUGC, which “RNAcompete 7-mer binding Z-score” value is on record?
The value was 1.2.

With AAAUACA as the sequence, how does the “RNAcompete 7-mer binding Z-score” value read?
The value was -0.0197.

AAAUACU was tested. Which “RNAcompete 7-mer binding Z-score” value did it give?
Its value is -0.592.

ACCGAGU was tested. Which “RNAcompete 7-mer binding Z-score” value did it give?
The value was -0.508.

Which “RNAcompete 7-mer binding Z-score” value does the source give for GACAACG here?
Its value is 0.275.

ACUGUGC was tested. Which “RNAcompete 7-mer binding Z-score” value did it give?
The value was -0.602.

GUUAGUG was tested. Which “RNAcompete 7-mer binding Z-score” value did it give?
Its value is 0.953.

With CUCGGAU as the sequence, how does the “RNAcompete 7-mer binding Z-score” value read?
The value was -0.395.

Which “RNAcompete 7-mer binding Z-score” value does the source give for GCAAGAA here?
Its value is 0.45.

GUCCGCC was tested. Which “RNAcompete 7-mer binding Z-score” value did it give?
Its value is -0.766.

How did the “RNAcompete 7-mer binding Z-score” value turn out when CUCAGCU was run?
Its value is -0.814.

UGAGAUC was tested. Which “RNAcompete 7-mer binding Z-score” value did it give?
Its value is -0.347.

GGACGAG was tested. Which “RNAcompete 7-mer binding Z-score” value did it give?
Its value is 2.39.

How did the “RNAcompete 7-mer binding Z-score” value turn out when GCCCGCA was run?
Its value is -0.741.

Which “RNAcompete 7-mer binding Z-score” value does the source give for CGCACAU here?
Its value is -0.621.

For UUAUUAU, which “RNAcompete 7-mer binding Z-score” value is on record?
The value was -0.486.

Which “RNAcompete 7-mer binding Z-score” value does the source give for UUGACUU here?
The value was -0.832.

For AGACUGU, which “RNAcompete 7-mer binding Z-score” value is on record?
The value was -0.788.

GACUUCU was tested. Which “RNAcompete 7-mer binding Z-score” value did it give?
Its value is -0.992.

GGUGUCU was tested. Which “RNAcompete 7-mer binding Z-score” value did it give?
The value was 0.159.

Which “RNAcompete 7-mer binding Z-score” value does the source give for CUAGACC here?
Its value is -0.876.

Which “RNAcompete 7-mer binding Z-score” value does the source give for ACUCAAG here?
The value was -0.377.

How did the “RNAcompete 7-mer binding Z-score” value turn out when GUCCAUU was run?
Its value is -0.741.

CUCCCCC was tested. Which “RNAcompete 7-mer binding Z-score” value did it give?
Its value is -0.526.

Which “RNAcompete 7-mer binding Z-score” value does the source give for UACUCCA here?
The value was -0.668.

Which “RNAcompete 7-mer binding Z-score” value does the source give for CCGUAAG here?
The value was -0.595.

Which “RNAcompete 7-mer binding Z-score” value does the source give for CUACGGU here?
The value was -0.209.

ACACAGC was tested. Which “RNAcompete 7-mer binding Z-score” value did it give?
The value was -0.442.

For ACAUCAC, which “RNAcompete 7-mer binding Z-score” value is on record?
The value was -0.708.

For CCUGCGC, which “RNAcompete 7-mer binding Z-score” value is on record?
The value was -0.883.

How did the “RNAcompete 7-mer binding Z-score” value turn out when CAUGAGU was run?
The value was -0.00512.

How did the “RNAcompete 7-mer binding Z-score” value turn out when AUCUCCA was run?
The value was -0.792.

AGUUCAC was tested. Which “RNAcompete 7-mer binding Z-score” value did it give?
Its value is -0.657.

AUGACGA was tested. Which “RNAcompete 7-mer binding Z-score” value did it give?
Its value is 0.312.

With CUGUUCC as the sequence, how does the “RNAcompete 7-mer binding Z-score” value read?
The value was -0.948.

GAGCGUC was tested. Which “RNAcompete 7-mer binding Z-score” value did it give?
The value was -0.344.

With UGGGUGA as the sequence, how does the “RNAcompete 7-mer binding Z-score” value read?
Its value is 3.5.

With UCUAAUA as the sequence, how does the “RNAcompete 7-mer binding Z-score” value read?
Its value is -0.599.

Which “RNAcompete 7-mer binding Z-score” value does the source give for GGUCCUC here?
Its value is -0.417.

Which “RNAcompete 7-mer binding Z-score” value does the source give for CCAACGC here?
The value was -0.504.

For AAGAGCG, which “RNAcompete 7-mer binding Z-score” value is on record?
Its value is 0.691.

For AAGGGCC, which “RNAcompete 7-mer binding Z-score” value is on record?
The value was 1.53.

With GUGUCAU as the sequence, how does the “RNAcompete 7-mer binding Z-score” value read?
Its value is -0.34.

GGUAAGU was tested. Which “RNAcompete 7-mer binding Z-score” value did it give?
Its value is 1.71.

For CGGGCCU, which “RNAcompete 7-mer binding Z-score” value is on record?
Its value is -0.351.

For CAUUAGC, which “RNAcompete 7-mer binding Z-score” value is on record?
The value was -0.65.

With UUACAGU as the sequence, how does the “RNAcompete 7-mer binding Z-score” value read?
Its value is -0.0343.

Which “RNAcompete 7-mer binding Z-score” value does the source give for GCUUUGA here?
Its value is -0.719.

Which “RNAcompete 7-mer binding Z-score” value does the source give for GGCAUUU here?
The value was -0.293.

Which “RNAcompete 7-mer binding Z-score” value does the source give for ACAUAUC here?
The value was -0.526.

With ACCACAG as the sequence, how does the “RNAcompete 7-mer binding Z-score” value read?
The value was -0.18.

How did the “RNAcompete 7-mer binding Z-score” value turn out when AGGUCUC was run?
Its value is -0.468.

How did the “RNAcompete 7-mer binding Z-score” value turn out when UUGUAUU was run?
Its value is -0.632.

How did the “RNAcompete 7-mer binding Z-score” value turn out when GGGGAAG was run?
Its value is 3.91.

With GGUAUUA as the sequence, how does the “RNAcompete 7-mer binding Z-score” value read?
The value was 1.07.

With ACUUCGU as the sequence, how does the “RNAcompete 7-mer binding Z-score” value read?
Its value is -0.715.

How did the “RNAcompete 7-mer binding Z-score” value turn out when UGCCUCG was run?
The value was -0.704.

With GAUUAAC as the sequence, how does the “RNAcompete 7-mer binding Z-score” value read?
The value was -0.286.

Which “RNAcompete 7-mer binding Z-score” value does the source give for GAGCCGA here?
Its value is -0.53.
